Measured values: PubChem BioAssay AID504832 (National Center for Advancing Translational Sciences (NCATS), 2011)
Out of some 310,000 compounds screened, about 18,000 (5.8%) were called active. The shares of active, inactive and inconclusive entries below differ from those in the screen. The call rests on the fitted dose curve; in most records, active means well fitted inhibition curve with a large enough effect; inconclusive means small, poorly fitted or top-dose-only effect, or another doubt; inactive means no such curve, though single readings can be large or run the other way. No potency is given beside an inconclusive call; the fits are too rough.

Assay: Primary qHTS for delayed death inhibitors of the malarial parasite plastid, 48 hour incubation
Conditions: P. falciparum luciferase growth in erythrocytes; series mostly up to 28.7 µM
Procedure, shortened: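 Compounds are pin-transferred into medium, infected erythrocytes (2% hematocrit, 0.1% parasitemia final) are added, and plates sit one parasite generation at 37 C in 5% CO2. Detection reagent is then added and luminescence measured.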
Potency means the concentration at half of the fitted maximal effect; tags describe the fitted curve by direction and shape.

SMILES | Potency
CC(C)(C)c1ccc(OCC(=O)NNC(=S)NC(=O)c2ccco2)c(Br)c1 | inconclusive [inhibitor, single point]
COC1=C/C(=C/c2c(N)n3c(nc2=O)sc2cc(S(C)(=O)=O)ccc23)C=CC1=O | inconclusive [inhibitor, full curve, poor fit]
CCC(Oc1ccccc1)C(=O)Nc1cc(Cl)ccc1-n1cncn1 (stereo unspecified) | active: 4.15 µM
Brc1ccc(-c2cn3c(n2)SCC3)cc1 | inactive
COc1ccccc1N(CC(O)COc1c(C)cc(C)cc1C)S(=O)(=O)c1ccccc1 (stereo unspecified) | active: 11.7 µM
CC12CC3CC(C)(C1)CC(N)(C3)C2 | inconclusive [inhibitor, single point]
CN(C(=O)COC(=O)c1ccccc1NCc1ccco1)c1c(N)n(Cc2ccccc2)c(=O)[nH]c1=O | inconclusive [inhibitor, single point]
C/C(=N\Nc1ccc(C(F)(F)F)cn1)c1ccncc1 | inactive
Cc1c(Cc2ccccc2)sc(/N=C/c2c(O)ccc3ccccc23)c1C(N)=O | inconclusive [inhibitor, single point]
S=C1NC2(CCCCC2)Cc2ccccc21 | inconclusive [inhibitor, single point]
Cc1sc2nc3n(c(=O)c2c1C)Cc1ccccc1-3 | inactive
N#Cc1ccc2c(c1)C[C@]1(c3ccsc3)Oc3c(c(=O)oc4ccccc34)C2O1 | inconclusive [inhibitor, single point]
Cc1c(NC(=O)/C(=C/c2cccs2)c2cccs2)c(=O)n(-c2ccccc2)n1C | inactive
COCCn1c(=NC(=O)/C=C/c2cccs2)sc2cc(NC(C)=O)ccc21 | inconclusive [inhibitor, partial curve]
CCOC(=O)C1CCN(C(=S)Nc2cc(C)ccc2C)CC1 | inactive
Cc1cc(NS(=O)(=O)c2ccc(NC(=O)/C=C/c3c(F)cccc3Cl)cc2)nc(C)n1 | inconclusive [inhibitor, partial curve, poor fit]
COc1cc2ncnc(NCc3cccs3)c2cc1OC | inconclusive [inhibitor, single point]
C=CCOC(=O)C1=C[C@H](c2ccc(Br)cc2)[C@@H](CCCO)[C@H](OCC)O1 | inconclusive [inhibitor, single point]
COc1ccc(C(C)C)cc1S(=O)(=O)n1ccnc1C | inconclusive [inhibitor, partial curve, poor fit]
CC(=O)NCCC1CCN(C(=O)c2cc(COc3ccc(C)nc3)on2)CC1 | inactive
CCn1cc(C(=O)NCc2ccc3c(c2)OCO3)c(=O)c2cc(S(=O)(=O)N(C)C)ccc21 | active: 11.7 µM
Cc1ccccc1CNC(=O)C1CCCN(c2nnc(C)c3c(C)n(-c4ccccc4)nc23)C1 (stereo unspecified) | inconclusive [inhibitor, partial curve, poor fit]

SMILES | Potency
C[C@]12CC[C@H](O)C[C@@H]1CC[C@@H]1[C@@H]2CC[C@]2(C)[C@@H](C(=O)O)C[C@@H]12 | inconclusive [inhibitor, partial curve, poor fit]
CC(C)C(c1nnnn1C1CCCCC1)N1CCN(c2ncccn2)CC1 (stereo unspecified) | inactive
CCCN(C(=O)COC(=O)c1[nH]c(C)c(C(=O)OC)c1C)c1c(N)n(Cc2ccccc2)c(=O)[nH]c1=O | active: 14.7 µM
CCOC(=O)c1ccc(S(=O)(=O)N2CCN(C(=O)c3cc4ccccc4o3)CC2)cc1 | active: 9.28 µM
CCN(CC)S(=O)(=O)c1ccc(Cl)c(C(=O)N2CCc3ccccc32)c1 | inconclusive [inhibitor, partial curve]
CC(=O)Nc1ccc(Nc2c3ccccc3nc3ccccc23)cc1 | inconclusive [inhibitor, full curve]
COc1cccc(/C=C/C(=O)Nc2ccccc2N2CCOCC2)c1 | inactive
CCOC(=O)C1=NOC(CN(c2ccccc2)S(=O)(=O)c2ccc(Cl)cc2)C1 (stereo unspecified) | inconclusive [inhibitor, partial curve, poor fit]
CC(CCc1ccccc1)NC(=O)CCCCCNc1nc(=S)[nH]c2ccccc12 (stereo unspecified) | inconclusive [inhibitor, single point]
CCc1ccc(CNCCc2c[nH]c3ccccc23)cc1 | inactive
CCOC(=O)CCC(NC(=O)c1cncc(O)c1)C(=O)OCC (stereo unspecified) | inconclusive [inhibitor, single point]
CCOC(=O)c1cn(CC)c2cc(N3CCN(C)CC3)c(F)cc2c1=O | active: 11.7 µM
CCN(CCCNC(=O)C1CCN(S(=O)(=O)N2CCC3(CC2)OCCO3)CC1)c1ccccc1 | inconclusive [inhibitor, single point]
O=c1c2ccccc2nc(CNc2ccccc2)n1-c1ccccc1 | inconclusive [inhibitor, single point]
O=C1CC2(CCN(C(=O)c3ccc(Br)cc3)CC2)Oc2ccccc21 | inconclusive [inhibitor, single point]
O=C1SCC(c2ccccc2)=NN1Cc1ccccc1 | inactive
COCCNc1nc(-c2cc(-c3ccccc3)on2)cc(C(C)C)n1 | inconclusive [inhibitor, single point]
Cc1ccc(S(=O)(=O)N2CCN(C(=O)CN3CCCSc4ccccc43)CC2)cc1 | inconclusive [inhibitor, single point]
COc1cc(C2CC(=O)N(CC(=O)NCc3ccco3)c3ccccc3S2)cc(OC)c1OC (stereo unspecified) | active: 10.4 µM
CCOC(=O)C1(Cc2ccccc2C(F)(F)F)CCN(C(=O)c2cc(C(C)=O)n[nH]2)CC1 | inconclusive [inhibitor, partial curve]
NC(=O)c1cc(S(=O)(=O)N2CCN(c3ccc([N+](=O)[O-])cc3)CC2)cs1 | inconclusive [inhibitor, single point]
Cc1ccccc1NS(=O)(=O)c1ccc(OCC(=O)NCc2cccnc2)cc1 | inactive

SMILES | Potency
O=C(CSc1nc2ccccc2[nH]1)N1c2ccccc2Sc2ccccc21 | inconclusive [inhibitor, single point]
COc1cc(C2Nc3cccc4cccc(c34)N2)ccc1O | inconclusive [inhibitor, partial curve]
O=C(c1cc([N+](=O)[O-])cc([N+](=O)[O-])c1)N(Cc1nnc(-c2ccccc2Cl)o1)C1CC1 | inconclusive [inhibitor, single point]
CN1CCN(NC(=O)c2cn(-c3ccccc3)nc2-c2ccc(OC(F)F)cc2)CC1 | inconclusive [inhibitor, single point]
Nc1c(C(=O)NCc2ccco2)c2nc3ccccc3nc2n1CCN1CCCCC1 | inconclusive [inhibitor, single point]
COc1cc(/C=C2/SC(=O)N(Cc3ccccc3Cl)C2=O)ccc1OCc1ccncc1 | inconclusive [inhibitor, full curve]
CCn1cc(C(=O)NCc2ccco2)c(=O)c2cc(S(=O)(=O)N3CCCCCC3)ccc21 | inconclusive [inhibitor, partial curve, poor fit]
O=C(O)c1cc(N/N=C/c2ccc3c(c2)OCCO3)ccc1Cl | inactive
COc1ccc2c(c1)CCN=C2Cc1ccc(OC)c(OC)c1 | inconclusive [inhibitor, single point]
COc1cc(NC(=O)c2cc(C)on2)cc(C(=O)Nc2cccc(C(F)(F)F)c2)c1 | inconclusive [inhibitor, single point]
Cc1nn(Cc2ccc(Cl)cc2)c(C)c1NC(=O)CCCn1nc([N+](=O)[O-])c(Cl)c1C | inconclusive [inhibitor, single point]
COc1cc(C2c3[nH]c4ccccc4c3C[C@@H]3C(=O)N(Cc4ccco4)CC(=O)N23)cc(OC)c1OC (stereo partly specified) | active: 2.33 µM
Cc1cc(C)cc(N(C(=O)CNC(=O)c2cccs2)C(C(=O)NC2CCCC2)c2cccnc2)c1 (stereo unspecified) | inconclusive [inhibitor, full curve, poor fit]
COc1cc2nc(N3CCN(c4cc(C)ccc4C)CC3)nc(N)c2cc1OC | active: 1.85 µM
Cc1ccc(N(CC(=O)Nc2ccc3c(c2)OCCO3)S(C)(=O)=O)cc1 | inactive
CCn1cc(C(=O)NCCCN2CC(C)CC(C)C2)c(=O)c2cc(S(=O)(=O)N(C)C3CCCCC3)ccc21 (stereo unspecified) | inconclusive [inhibitor, partial curve]
O=NCc1ccc([N+](=O)[O-])o1 | inconclusive [inhibitor, single point]
NC1=NC[C@H](Cc2ccc(O)cc2)N1CCc1cc(C(F)(F)F)cc(C(F)(F)F)c1 | active: 5.22 µM
CCCSC1=C(C#N)C(c2cccnc2)C(C(=O)OCC)=C(c2ccccc2)N1 (stereo unspecified) | inconclusive [inhibitor, partial curve, poor fit]
CC(C)OC(=O)c1c(N)n(CC2CCCO2)c2nc3ccccc3nc12 (stereo unspecified) | inconclusive [inhibitor, single point]
CC1CCN(Cc2nnnn2-c2cccc([N+](=O)[O-])c2)CC1 | inconclusive [inhibitor, partial curve, poor fit]
CC(C)C(=O)Nc1cccc(-c2cn3ccccc3n2)c1 | inactive
